# Experimental data: the supplement of paper PMC3334620
# Over roughly 33,000 sequences, “E-score (-0.5 to 0.5)” has its median near -0.056; the highest 2% begin near 0.38. The list shows a part of the results.
# Biological target: Stb4 (UniProt P50104)
# Experiment: PBM E-score (8-mer binding enrichment) (E-score (-0.5 to 0.5)); higher = stronger / more preferred TF binding; most listed sequences are background and not binding sites
# Conditions: protein concentration: 200 nM; construct: GST-DNA-binding domain
# How it was run: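 GST-tagged yeast TFs (full-length or DNA-binding domain) were made by PURExpress in vitro transcription/translation and applied at about 100-200 nM to universal all-10-mer Agilent arrays. The arrays were made double-stranded by primer extension, on fresh or once-stripped slides. Bound protein was detected with fluorescent anti-GST, and scans were normalised with masliner. Each ungapped eight-base word, pooled with its reverse complement, received an E-score (modified Wilcoxon-Mann-Whitney statistic) from the Universal PBM Analysis Suite.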
row,Sequence,PBM E-score
1,GTATTAAA,0.0474
2,CATCGCTC,0.0959
3,CCTAACAA,-0.248
4,CATAGATA,-0.126
5,TTCGCGAA,0.104
6,CGGAAAGC,0.386
7,ATCTGCCC,-0.0206
8,AAACTTAG,-0.152
9,TCGATACA,-0.156
10,AATGCGGG,0.31
11,ATGGAAGC,0.00369
12,CAGACATC,0.0141
13,ATTAGGAG,-0.0687
14,CCGATAAC,0.32
15,ACAGTGAT,-0.17
16,GTTTTGAA,-0.133
17,GGCGGTAA,0.275
18,AAGGTTCC,0.166
19,ATCGCACC,-0.0362
20,CCAAGTGA,-0.117
21,GGCGTACC,0.157
22,CTTGAATA,0.0123
23,CCTCCCAA,-0.0335
24,GGAGGAGA,-0.00987
25,CAAATTGC,0.0591

row,Sequence,PBM E-score
1,ACGCTGCT,-0.186
2,GAACTAGA,-0.0244
3,ACTAGCAC,-0.12
4,CCGGTGAC,0.21
5,CTCCGATA,0.275
6,ATTTTATA,0.15
7,AGTTGTAA,-0.137
8,AGCAATGG,0.0364
9,GCTTCTAC,-0.121
10,ATGGTGAG,-0.179
11,GACCAGTC,-0.104
12,AGGACAGA,-0.2
13,TTGTCAAA,-0.00867
14,GTACTCAC,-0.2
15,AAGTAAAG,0.0625
16,TAGGTAGA,-0.12
17,CCTTCAAA,-0.0719
18,ATTCCCAG,0.0187
19,ATATGCTA,-0.0937
20,GCAAATAA,-0.0794
21,CGTCTCTA,-0.0888
22,AACCTTCG,0.144
23,AACCGTCA,-0.0559
24,CTGGCGAC,-0.225
25,CTTCACTA,-0.186

row,Sequence,PBM E-score
1,TAGTGCCA,-0.179
2,ACGCTAGA,-0.097
3,ACCGAGGA,0.323
4,AGTATGTA,-0.0544
5,TAGTAAAA,-0.0383
6,ATCAAGTA,-0.105
7,CCATACGA,-0.173
8,ACAATCTG,-0.064
9,TATCCTAA,-0.13
10,AAGCAGTC,-0.0806
11,ACACCGGC,0.182
12,CGACTGTA,-0.169
13,AAAGACTT,-0.161
14,ACTGAGCT,-0.197
15,CTGAGATA,0.0767
16,GTCAATGA,-0.264
17,AAAATGCG,0.0746
18,CAAGGCGC,-0.0814
19,GGGAAAGA,-0.0458
20,GGGTGCAA,0.279
21,TAAAGATA,-0.0153
22,CTATGGAG,-0.288
23,TATTCTGA,-0.0955
24,AAGTTTAC,-0.0345
25,ATAGTTTA,-0.194

row,Sequence,PBM E-score
1,CTAGACGA,-0.272
2,GCTTGAGA,-0.312
3,AGTACGGC,-0.00308
4,AGACTGGG,-0.0949
5,ACACCGGG,0.213
6,GAATTGCA,-0.0881
7,CCAGCTCC,-0.0562
8,ATACCTAC,0.0401
9,GATGACCC,-0.0287
10,ACTCGAAC,-0.265
11,AGACTGCG,-0.148
12,AGGAACTA,0.0365
13,ATGCCAGG,0.0545
14,ATAGGAAG,-0.113
15,CGTGATCA,-0.134
16,AATCGTTA,-0.0223
17,TCCACGGA,0.275
18,ATATGCCC,-0.00474
19,ATAAAGCA,-0.157
20,ATATCAAG,-0.15
21,AGATGTAA,-0.0732
22,CCCCTGAG,-0.224
23,CATACAGG,-0.149
24,ACTGAGGG,-0.281
25,CTATCATC,0.0565

row,Sequence,PBM E-score
1,CGGTCCAA,0.0958
2,GTTTTCAA,-0.0295
3,GGAGCATA,0.238
4,ACTATGGG,-0.208
5,ACTTGGTC,0.0782
6,CCGCCACG,0.0619
7,CACCGTTC,0.0443
8,AGTCGTCC,0.0517
9,AAGCATAC,-0.108
10,ACTGCCAC,-0.227
11,GGCGCTGA,-0.161
12,ATCATGGC,0.011
13,ACATGTCG,-0.0783
14,ATGACAGA,-0.113
15,ATTACAGG,-0.0285
16,ACATATAA,-0.0928
17,AACTACGT,-0.145
18,GTTAGCCA,0.0717
19,CGCAATAA,0.0534
20,TAGTGCAA,-0.216
21,CATAACGA,-0.153
22,ATGTGTGC,-0.154
23,CTTGCGGA,0.112
24,ATCTAAGA,-0.112
25,ACGTAACA,-0.043

row,Sequence,PBM E-score
1,AAGGGAAC,-0.0269
2,ACGGCCGT,0.0769
3,GGACCGAA,0.322
4,CAACAGCG,-0.0446
5,CGGAGGAG,0.209
6,ACGCTCGG,0.42
7,AACGCCCT,-0.271
8,CTTAAGTC,0.029
9,GAGGGACC,-0.126
10,CAAATCGC,-0.184
11,AAAACGAT,-0.277
12,CAAGGAGA,-0.0842
13,ATTATACA,-0.0638
14,CCGAACCG,0.447
15,AGCGACAT,-0.197
16,GCCGGCAC,0.329
17,GGATGCAC,0.121
18,ATTCGAAA,-0.0533
19,AGTTGGTC,-0.0467
20,GGGGCCAC,-0.0381
21,ACAGAAAG,-0.101
22,AGAGTGTC,-0.0967
23,CTCAAAGA,-0.203
24,ATATGCAT,0.00238
25,GTATAGTA,0.0914

row,Sequence,PBM E-score
1,CAGGTCCC,-0.0608
2,AGCACATG,-0.166
3,GGCGGTGA,-0.0521
4,ACCTTTAC,0.0353
5,ACGGCTAA,0.264
6,GCAGTCGA,0.0133
7,CGCGCCCA,0.0532
8,TAACTTAA,0.0212
9,TATCAACA,-0.155
10,AACAGTGC,0.0266
11,CTTAATAA,0.183
12,GAGACAAA,-0.111
13,CACGAGTG,-0.322
14,GAAATAAC,0.138
15,CATAGTCG,-0.0983
16,CTGGTAGC,-0.224
17,ACCGGACG,0.146
18,AAGAATGC,0.0415
19,CGTATTGA,-0.271
20,ACCCTCCG,0.219
21,GTGGTAAC,0.0417
22,AGCGCTTG,-0.0436
23,ATATGGAA,-0.0997
24,CGTCAAAA,-0.117
25,AGTTCAGC,-0.143

row,Sequence,PBM E-score
1,ATGAAGTA,-0.112
2,TAAAAATA,-0.094
3,AATCTCGT,-0.0273
4,CCTCACAA,0.00427
5,GAATATAC,0.0907
6,CGATTGGA,-0.122
7,GTCGTCAA,-0.00905
8,CAAGGACA,-0.104
9,AACAACAG,-0.0489
10,ATATCTTG,-0.232
11,GGGCACTA,-0.102
12,ACTATAAA,-0.0593
13,AATCGACG,-0.118
14,GGAAGAAC,0.278
15,AATGTCGA,-0.212
16,AGGAGTCA,-0.0329
17,CGACGACA,-0.0341
18,ACCACGGC,0.151
19,CGTTCGAG,-0.222
20,ACGACTAC,-0.216
21,GCTGTGAC,-0.161
22,ATCCTCCA,-0.234
23,TCTGTTCA,-0.128
24,CTATAGGA,-0.178
25,CAACAGTG,0.0353

row,Sequence,PBM E-score
1,ACACCCCA,-0.124
2,CTACTACA,-0.0284
3,GAATTATA,0.0138
4,ACTATGAG,-0.131
5,CGATTGAG,0.0561
6,TTCATAAA,-0.0895
7,GGCGACGA,-0.0901
8,CGGGCTTC,0.276
9,ACAGGAAC,-0.133
10,AAATGCGA,-0.0548
11,ACGTGGCA,-0.256
12,AGGTTGTA,-0.0202
13,ACCCACGG,-0.00624
14,CCGCCTCG,0.173
15,CAATTGTC,-0.0439
16,ACACTACG,0.0379
17,GCATTGTA,-0.0628
18,GACTTATA,0.0812
19,ATCTCGGA,0.461
